Measurements: the supplement of paper PMC6828730
Some of the results follow. Repeats are few or missing, and single values can be far off.

Test system: hiPSC-derived cardiomyocytes
Experiment: time to death of most cells in well after compound addition (days); higher = less cardiotoxic; extreme values may be limits of the assay
Settings: screen: 3; 10 µM

Structure (SMILES)	time to death of most cells in well
O=c1c(O)c(-c2ccc(O)c(O)c2)oc2cc(O)cc(O)c12 [Quercetin]	> 7
N#C/C(=C(/N)Sc1ccc(N)cc1)c1ccccc1C(F)(F)F	> 7
CN1CCN(Cc2ccc(-c3cnc4[nH]cc(-c5ccc6[nH]ccc6c5)c4c3)cc2)CC1	0.5
Cc1ccc(C(=O)Nc2ccc(CN3CCN(C)CC3)c(C(F)(F)F)c2)cc1C#Cc1cnc2[nH]ncc2c1 [GZD824 Dimesylate]	3.5
C=CC(=O)Nc1ccc2ncnc(Nc3ccc(OCc4cccc(F)c4)c(Cl)c3)c2c1	> 7
C=CC(=O)N1CCC[C@@H](n2nc(-c3ccc(Oc4ccccc4)cc3)c3c(N)ncnc32)C1	> 7
CCN(CC)CCCC(C)Nc1ccnc2cc(Cl)ccc12 (stereo not drawn) [Chloroquine Phosphate]	> 7
C[C@]1(O)C[C@@H](c2nc(-c3ccc4ccc(-c5ccccc5)nc4c3)c3c(N)nccn32)C1 [Linsitinib (OSI-906)]	> 7
O=C(NOC[C@H](O)CO)c1ccc(F)c(F)c1Nc1ccc(I)cc1F	> 7
CS(=O)(=O)CCNCc1ccc(-c2ccc3ncnc(Nc4ccc(OCc5cccc(F)c5)c(Cl)c4)c3c2)o1 [Lapatinib]	> 7
c1cncc(CN2CCC(n3ncc4c(N5CCOCC5)nc(-c5ccc6[nH]ccc6c5)nc43)CC2)c1	6
O=C1NC(=O)/C(=C/c2ccc(-c3ccc(F)cc3O)o2)S1	> 7
O=C(Nc1nc2cccc(-c3ccc(CN4CCS(=O)(=O)CC4)cc3)n2n1)C1CC1 [Filgotinib (GLPG0634)]	3
Cc1cc(C)c(/C=C2\C(=O)Nc3ccccc32)[nH]1 [Semaxanib (SU5416)]	> 7
CN1CCN(c2ccc3nc(-c4c(N)c5c(F)cccc5[nH]c4=O)[nH]c3c2)CC1 [Dovitinib (TKI-258, CHIR-258)]	> 7
COc1cc2nccc(Oc3ccc(NC(=O)C4(C(=O)Nc5ccc(F)cc5)CC4)cc3)c2cc1OC [Cabozantinib malate (XL184)]	> 7
CN(C)C/C=C/C(=O)Nc1cc2c(Nc3ccc(F)c(Cl)c3)ncnc2cc1O[C@H]1CCOC1 [Afatinib (BIBW2992)]	3.5
Cc1cc(CS(=O)(=O)c2ccccc2)cc(OCc2ccc(CN3CCC[C@@H]3CO)cc2)c1	> 7
C=CC(=O)Nc1cccc(Nc2nc(Nc3ccc(OCCOC)cc3)ncc2F)c1	> 7

Structure (SMILES)	time to death of most cells in well
Cc1ccc(NC(=O)c2ccc(CN3CCN(C)CC3)cc2)cc1Nc1nc(-c2cccnc2)cs1 [Masitinib (AB1010)]	> 7
CC[C@@](C)(Nc1ccnc(-c2c[nH]c3ncccc23)n1)C(=O)NCC(F)(F)F [Decernotinib (VX-509)]	> 7
CC(C)CC(NC(=O)C(Cc1ccccc1)NC(=O)C(CCC(N)=O)NC(=O)C(Cc1ccc(O)cc1)NC(=O)C(C)NC(=O)CNC(=O)C(CCCCN)NC(=O)C(Cc1c[nH]c2ccccc12)NC(=O)C(NC(=O)C(Cc1c[nH]c2ccccc12)NC(=O)C(CCCCN)NC(=O)CNC(=O)C(CC(N)=O)NC(=O)C(CCC(=O)O)NC(=O)C(Cc1c[nH]c2ccccc12)NC(=O)C(NC(=O)C(Cc1c[nH]c2ccccc12)NC(=O)C(CO)NC(=O)CNC(=O)C1CCCN1C(=O)C(Cc1c[nH]c2ccccc12)NC(=O)C(CCC(N)=O)NC(=O)C(Cc1ccccc1)NC(=O)CNC(=O)C(N)Cc1c[nH]cn1)C(C)O)C(C)O)C(=O)NC(CCCCN)C(=O)NCC(=O)NCC(=O)NCC(=O)NCC(=O)NC(CO)C(=O)NC(CCCNC(=N)N)C(=O)NC(CCCNC(=N)N)C(=O)NC(CCCNC(=N)N)C(=O)NC(CCCNC(=N)N)C(=O)NC(CCCNC(=N)N)C(=O)NC(CCCNC(=N)N)C(=O)NC(CCCNC(=N)N)C(=O)NC(CCCNC(=N)N)C(=O)NC(CCCNC(=N)N)C(=O)O (stereo not drawn)	> 7
COc1cccc(-c2cc(=O)c3ccccc3o2)c1N	> 7
CN(c1ccccc1CNc1nc(Nc2ccc3c(c2)CC(=O)N3)ncc1C(F)(F)F)S(C)(=O)=O	> 7
CC(C)Nc1cc(-c2c[nH]c(C(=O)N[C@H](CO)c3cccc(Cl)c3)c2)c(Cl)cn1	> 7
N#Cc1c(O)c2c(-c3ccc(-c4ccccc4O)cc3)csc2[nH]c1=O	> 7
CN1CCC(COc2cnc(-c3cccc(Cn4nc(-c5cccc(C#N)c5)ccc4=O)c3)nc2)CC1	> 7
Nc1ncnc2c1c(-c1cnc3[nH]ccc3c1)nn2C1CCCC1	> 7
CCN(C)S(=O)(=O)Nc1ccc(F)c(C(=O)c2c[nH]c3ncc(-c4cnc(C5CC5)nc4)cc23)c1F	> 7
COc1cccc2cc(-c3nc([C@H]4CC[C@H](C(=O)O)CC4)n4ncnc(N)c34)[nH]c12	> 7
CN1CCN(c2ccc(-c3ccncc3-c3cc(F)c(O)c(F)c3)cc2)CC1	> 7
C#Cc1cccc(Nc2ncnc3cc4c(cc23)OCCOCCOCCO4)c1 [Icotinib]	> 7
COc1cc2c(Oc3ccc(NC(=O)C4(C(=O)Nc5ccc(F)cc5)CC4)cc3F)ccnc2cc1OCCCN1CCOCC1	6
CCN(CC)CCNC(=O)c1c(C)[nH]c(/C=C2\C(=O)Nc3ccc(F)cc32)c1C [Sunitinib Malate]	4
CC(C)(C)c1cc(C=C(C#N)C#N)cc(Br)c1O	> 7
C[C@H](NC(=O)/C(C#N)=C/c1cccc(Br)n1)c1ccccc1	> 7
CO[C@H]1C[C@@H]2CC[C@@H](C)[C@@](O)(O2)C(=O)C(=O)N2CCCC[C@H]2C(=O)O[C@H]([C@H](C)C[C@@H]2CC[C@@H](OP(C)(C)=O)[C@H](OC)C2)CC(=O)[C@H](C)/C=C(\C)[C@@H](O)[C@@H](OC)C(=O)[C@H](C)C[C@H](C)/C=C/C=C/C=C/1C [Ridaforolimus (Deforolimus, MK-8669)]	> 7
Oc1ccc2ccccc2c1SSc1c(O)ccc2ccccc12	3
